Assay results from PubChem BioAssay (Tox21).
Inconclusive results are not listed. Calls follow the shape of the dose curve; as a rule, active = well fitted inhibition curve with a large enough effect in the repeat runs; inconclusive = weak or mixed curves; inactive = no such curve, though single readings can be large or run the other way. More than one record can exist for a structure, and the calls need not agree. A number of entries come with more than one value. This is not the full list of results. There may be further records. Results that share an entry are repeated measurements in other runs, samples, wells, individuals or studies. Brackets tell where a record comes from. The letters are not those of the source and start again with each entry.

Assay: qHTS assay to identify small molecule antagonists of the thyroid receptor (TR) signaling pathway (AID 743065); also: nearly all actives have a fitted effect of over 55% in size
Settings: GH3.TRE-Luc, T3-stimulated luciferase inhibition, 23.5 h; series mostly up to 70.3 µM
Outline: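 GH3.TRE-Luc rat pituitary cells (two TREs driving luciferase) were dosed with compound, then stimulated with 1 nM T3 (final) for 23.5 h at 37 C. ONE-Glo luminescence was the read-out, with CellTiter-Fluor fluorescence as the cytotoxicity counter-screen.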
Potency is read from the fitted curve at half-maximal effect.

CC(C)OC(=O)OCOP(=O)(CO[C@H](C)Cn1cnc2c(N)ncnc21)OCOC(=O)OC(C)C
Potency: inactive [sample A] and active: 23.7 µM [sample B]
